Data reported in PMC9911399, “Two distinct binding modes provide the RNA-binding protein RbFox with extraordinary sequence specificity”.
Where a chain is given by its changes, count along the chain named. The list shows a part of the results.

T1: RBFOX1 RRM (Homo sapiens, UniProt Q9NWB1 109-208)
T1 sequence: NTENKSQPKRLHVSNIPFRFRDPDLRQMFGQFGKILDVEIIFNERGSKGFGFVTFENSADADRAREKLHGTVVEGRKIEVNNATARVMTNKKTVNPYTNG

B1: AGGUCAU (DNA:RNA)
RNA: GGGAGACCGGAAUUCAGAUUGUCCAGGUCAUUUAAAUCCCGUCGUAGCCACCA
DNA 1: CAATCTGAATTCCGGTCTCCC
DNA 2: TGGTGGCTACGACGGGATT
B2: GAGUGAC (DNA:RNA)
RNA: B1 RNA with A25G, G26A, C29G, U31C
DNA 1: CAATCTGAATTCCGGTCTCCC
DNA 2: TGGTGGCTACGACGGGATT
B3: GACUACG (DNA:RNA)
RNA: B1 RNA with A25G, G26A, G27C, C29A, A30C, U31G
DNA 1: CAATCTGAATTCCGGTCTCCC
DNA 2: TGGTGGCTACGACGGGATT
B4: GUCGUCG (DNA:RNA)
RNA: GGGAGACCGGAAUUCAGAUUGUCCGUCGUCGUUAAAUCCCGUCGUAGCCACCA
DNA 1: CAATCTGAATTCCGGTCTCCC
DNA 2: TGGTGGCTACGACGGGATT
B5: GGAUGAU (DNA:RNA)
RNA: B1 RNA with A25G, G27A, C29G
DNA 1: CAATCTGAATTCCGGTCTCCC
DNA 2: TGGTGGCTACGACGGGATT
B6: AAGUUCU (DNA:RNA)
RNA: B1 RNA with G26A, C29U, A30C
DNA 1: CAATCTGAATTCCGGTCTCCC
DNA 2: TGGTGGCTACGACGGGATT
B7: AAGAUGU (DNA:RNA)
RNA: B1 RNA with G26A, U28A, C29U, A30G
DNA 1: CAATCTGAATTCCGGTCTCCC
DNA 2: TGGTGGCTACGACGGGATT
B8: ACACUCA (DNA:RNA)
RNA: B4 RNA with G25A, U26C, C27A, G28C, G31A
DNA 1: CAATCTGAATTCCGGTCTCCC
DNA 2: TGGTGGCTACGACGGGATT
B9: UUCCCUG (DNA:RNA)
RNA: B4 RNA with G25U, G28C, U29C, C30U
DNA 1: CAATCTGAATTCCGGTCTCCC
DNA 2: TGGTGGCTACGACGGGATT
B10: CGCACCC (DNA:RNA)
RNA: B1 RNA with A25C, G27C, U28A, A30C, U31C
DNA 1: CAATCTGAATTCCGGTCTCCC
DNA 2: TGGTGGCTACGACGGGATT
B11: ACGCUUU (DNA:RNA)
RNA: B1 RNA with G26C, U28C, C29U, A30U
DNA 1: CAATCTGAATTCCGGTCTCCC
DNA 2: TGGTGGCTACGACGGGATT
B12: AAUCAAG (DNA:RNA)
RNA: B1 RNA with G26A, G27U, U28C, C29A, U31G
DNA 1: CAATCTGAATTCCGGTCTCCC
DNA 2: TGGTGGCTACGACGGGATT
B13: ACAGGUC (DNA:RNA)
RNA: B1 RNA with G26C, G27A, U28G, C29G, A30U, U31C
DNA 1: CAATCTGAATTCCGGTCTCCC
DNA 2: TGGTGGCTACGACGGGATT
B14: AGAAUGG (DNA:RNA)
RNA: B1 RNA with G27A, U28A, C29U, A30G, U31G
DNA 1: CAATCTGAATTCCGGTCTCCC
DNA 2: TGGTGGCTACGACGGGATT
B15: GCAAAAA (DNA:RNA)
RNA: B1 RNA with A25G, G26C, G27A, U28A, C29A, U31A
DNA 1: CAATCTGAATTCCGGTCTCCC
DNA 2: TGGTGGCTACGACGGGATT
B16: AAAGAGA (DNA:RNA)
RNA: B1 RNA with G26A, G27A, U28G, C29A, A30G, U31A
DNA 1: CAATCTGAATTCCGGTCTCCC
DNA 2: TGGTGGCTACGACGGGATT
B17: AGGUAUA (DNA:RNA)
RNA: B1 RNA with C29A, A30U, U31A
DNA 1: CAATCTGAATTCCGGTCTCCC
DNA 2: TGGTGGCTACGACGGGATT
B18: CCGGGUA (DNA:RNA)
RNA: B1 RNA with A25C, G26C, U28G, C29G, A30U, U31A
DNA 1: CAATCTGAATTCCGGTCTCCC
DNA 2: TGGTGGCTACGACGGGATT
B19: GACGAUU (DNA:RNA)
RNA: B4 RNA with U26A, U29A, C30U, G31U
DNA 1: CAATCTGAATTCCGGTCTCCC
DNA 2: TGGTGGCTACGACGGGATT
B20: CAGUGCU (DNA:RNA)
RNA: B1 RNA with A25C, G26A, C29G, A30C
DNA 1: CAATCTGAATTCCGGTCTCCC
DNA 2: TGGTGGCTACGACGGGATT

Target: T1, RBFOX1 RRM
Experiment: EMSA; HiTS-Eq, 1 nM pool, 10 min; buffer printed only for the single-RNA assays: 10 mM Tris pH 7.5, 150 mM NaCl, 3.4 mM EDTA, 0.001% NP-40, 30 C
Details: tags: His6 N-terminal (pET28a); label: 5' 32P
Procedure, shortened: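 Relative association constants, normalised to the cognate motif, were derived by comparing read counts of each RNA species with those of the control reaction. The RNA sequenced was the free fraction, separated by 8% native PAGE after a 10 min equilibration in 50 µL of 1 nM 5′-radiolabelled RNA (7 randomized nucleotides) with increasing concentrations of purified wild-type or mutant RbFox RRM.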

Row | Binder | binding signal
1 | B1 | 0.011 KA relative to UGCAUGU
2 | B2 | 0.00727 KA relative to UGCAUGU
3 | B3 | 0.0106 KA relative to UGCAUGU
4 | B4 | 0.017 KA relative to UGCAUGU
5 | B5 | 0.0235 KA relative to UGCAUGU
6 | B6 | 0.00716 KA relative to UGCAUGU
7 | B7 | 0.00916 KA relative to UGCAUGU
8 | B8 | 0.00153 KA relative to UGCAUGU
9 | B9 | 0.0127 KA relative to UGCAUGU
10 | B10 | 0.0102 KA relative to UGCAUGU
11 | B11 | 0.00817 KA relative to UGCAUGU
12 | B12 | 0.00185 KA relative to UGCAUGU
13 | B13 | 0.00691 KA relative to UGCAUGU
14 | B14 | 0.0127 KA relative to UGCAUGU
15 | B15 | 0.00148 KA relative to UGCAUGU
16 | B16 | 0.0065 KA relative to UGCAUGU
17 | B17 | 0.00421 KA relative to UGCAUGU
18 | B18 | 0.0175 KA relative to UGCAUGU
19 | B19 | 0.00862 KA relative to UGCAUGU
20 | B20 | 0.0142 KA relative to UGCAUGU
